Results: the supplement of paper PMC4967469
A lower IC50 marks a more sensitive line; a fit beyond the top or the lowest dose is shown as a bound at that dose. For AUC the same curve is integrated over the 256-fold range of doses and scaled to a fraction; the more sensitive the line, the further below 1. An inferred top dose was derived from the fitted curves, not read from the paper. For some assays here: Where an entry number is given, a second screen of the drug exists; the two often differ.

Columns and labels:
AICAR = compound: NC(=O)c1ncn([C@@H]2O[C@H](CO)[C@@H](O)[C@H]2O)c1N [AICAR]; test: Viability of human cancer cell lines after 72 h of drug (GDSC screen); settings: top dose 2000 µM; top dose inferred
Procedure: (§1)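 Human cancer cell lines in 384-well plates, medium with 10% serum, drug for 72 h over a 256-fold dose range (nine 2-fold or five 4-fold steps up to the top dose). Adherent lines were fixed and stained with the nucleic acid dye Syto60, suspension lines read with resazurin; signal relative to control wells, capped at 0 and 100%. One two-parameter sigmoid per drug and line, fitted in a mixed model over all curves with the slope shared within a line.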

AKT inhibitor VIII = compound: O=c1[nH]c2ccccc2n1C1CCN(Cc2ccc(-c3[nH]c4cc5ncnc5cc4nc3-c3ccccc3)cc2)CC1 [AKT inhibitor VIII]; test: as above; settings: top dose inferred
Procedure: as §1

[1] = top dose 2.56 µM, screen: GDSC drug entry 171
[2] = top dose 10.24 µM, screen: GDSC drug entry 228

Row | Cell Line | AUC (AICAR) | IC50 (AICAR) [µM] | AUC (AKT inhibitor VIII; [1]) | IC50 (AKT inhibitor VIII; [1]) [µM] | AUC (AKT inhibitor VIII; [2]) | IC50 (AKT inhibitor VIII; [2]) [µM]
1 | SHP-77 (small cell lung carcinoma, semi-adherent) | 0.953 | > 2000 | 0.957 | > 2.56 | 0.927 | > 10.2
2 | SIMA (neuroblastoma, adherent) | 0.936 | > 2000 | 0.984 | > 2.56 | 0.888 | > 10.2
3 | SISO (cervix, adherent) | 0.891 | > 2000 | 0.912 | > 2.56 | 0.876 | 9.4
4 | SJRH30 (rhabdomyosarcoma, adherent) | 0.986 | > 2000 | 0.986 | > 2.56 | 0.848 | 8.02
5 | SJSA-1 (bone, adherent) | 0.818 | 1320 | 0.949 | > 2.56 | 0.95 | > 10.2
6 | SK-ES-1 (Ewing sarcoma, semi-adherent) | 0.713 | 521 | 0.967 | > 2.56 | 0.823 | 6.58
7 | SK-GT-4 (oesophagus, adherent) | 0.899 | > 2000 |  |  | 0.871 | > 10.2
8 | SK-HEP-1 (liver, adherent) | 0.836 | 1200 | 0.978 | > 2.56 | 0.989 | > 10.2
9 | SK-MEL-2 (melanoma, adherent) | 0.925 | > 2000 | 0.972 | > 2.56 | 0.763 | 3.81
10 | SK-MEL-3 (melanoma, adherent) | 0.978 | > 2000 | 0.93 | > 2.56 | 0.909 | > 10.2
11 | SK-MEL-5 (melanoma, adherent) | 0.978 | > 2000 |  |  | 0.849 | > 10.2
12 | SK-MEL-24 (melanoma, adherent) | 0.904 | > 2000 | 0.931 | > 2.56 | 0.978 | > 10.2
13 | SK-MEL-30 (melanoma, adherent) | 0.946 | > 2000 | 0.984 | > 2.56 | 0.928 | > 10.2
14 | SK-MES-1 (lung squamous cell carcinoma, adherent) | 0.943 | > 2000 | 0.839 | 1.98 | 0.811 | 6.03
15 | SK-MG-1 (glioma, adherent) | 0.86 | 1720 |  |  | 0.987 | > 10.2
16 | SK-MM-2 (myeloma, suspension) | 0.839 | 1460 | 0.96 | > 2.56 | 0.559 | 0.932
17 | SK-N-AS (neuroblastoma, adherent) | 0.84 | 1700 | 0.975 | > 2.56 | 0.761 | 4.16
18 | SK-N-FI (neuroblastoma, adherent) | 0.99 | > 2000 | 0.988 | > 2.56 | 0.945 | > 10.2
19 | SK-N-SH (neuroblastoma, adherent) | 0.943 | > 2000 | 0.974 | > 2.56 | 0.923 | > 10.2
20 | SK-OV-3 (ovary, adherent) | 0.908 | > 2000 | 0.931 | > 2.56 | 0.677 | 2.29
21 | SK-PN-DW (Ewing sarcoma, adherent) | 0.682 | 414 | 0.917 | > 2.56 | 0.878 | > 10.2
22 | SK-UT-1 (soft tissue, adherent) | 0.937 | > 2000 | 0.804 | 1.15 | 0.899 | > 10.2
23 | SKG-IIIa (cervix, adherent) | 0.894 | > 2000 | 0.97 | > 2.56 | 0.961 | > 10.2
24 | SKN (uterus, adherent) | 0.904 | > 2000 | 0.885 | > 2.56 | 0.881 | > 10.2
25 | SKN-3 (head and neck, adherent) | 0.879 | > 2000 | 0.982 | > 2.56 | 0.983 | > 10.2
26 | SLVL (B-cell lymphoma, suspension) | 0.774 | 831 | 0.957 | > 2.56 | 0.718 | 2.76

Row | Cell Line | AUC (AICAR) | IC50 (AICAR) [µM] | AUC (AKT inhibitor VIII; [1]) | IC50 (AKT inhibitor VIII; [1]) [µM] | AUC (AKT inhibitor VIII; [2]) | IC50 (AKT inhibitor VIII; [2]) [µM]
27 | SNB75 (glioma, adherent) | 0.847 | > 2000 | 0.885 | > 2.56 | 0.899 | > 10.2
28 | SNG-M (endometrium, adherent) | 0.935 | > 2000 | 0.952 | > 2.56 | 0.914 | > 10.2
29 | SNU-61 (large intestine, adherent) | 0.921 | > 2000 |  |  | 0.908 | > 10.2
30 | SNU-81 (large intestine, adherent) | 0.883 | > 2000 |  |  | 0.728 | 3.63
31 | SNU-182 (liver, adherent) | 0.869 | 1980 | 0.91 | > 2.56 | 0.704 | 2.47
32 | SNU-387 (liver, adherent) | 0.901 | > 2000 | 0.857 | 2.55 | 0.72 | 2.96
33 | SNU-407 (large intestine, adherent) | 0.947 | > 2000 |  |  | 0.762 | 4.25
34 | SNU-423 (liver, adherent) | 0.836 | 1660 | 0.875 | > 2.56 | 0.784 | 5.14
35 | SNU-449 (liver, adherent) | 0.899 | > 2000 | 0.973 | > 2.56 | 0.734 | 3.19
36 | SNU-C1 (large intestine, suspension) | 0.812 | 1780 | 0.902 | > 2.56 | 0.807 | 8.62
37 | SNU-C2B (large intestine, adherent) | 0.803 | 1380 | 0.937 | > 2.56 | 0.894 | > 10.2
38 | SNU-C5 (large intestine, adherent) | 0.867 | > 2000 |  |  | 0.93 | > 10.2
39 | STS-0421 (soft tissue, adherent) | 0.782 | 986 | 0.95 | > 2.56 | 0.848 | 9.68
40 | SU8686 (pancreas, adherent) | 0.903 | > 2000 | 0.967 | > 2.56 | 0.973 | > 10.2
41 | SU-DHL-4 (B-cell lymphoma, suspension) | 0.991 | > 2000 | 0.997 | > 2.56 | 0.803 | 3.51
42 | SU-DHL-5 (B-cell lymphoma, suspension) | 0.711 | 413 | 0.932 | 2.48 | 0.664 | 1.61
43 | SU-DHL-6 (B-cell lymphoma, suspension) | 0.827 | 823 | 0.943 | > 2.56 | 0.349 | 0.274
44 | SU-DHL-16 (B-cell lymphoma, suspension) | 0.623 | 247 | 0.891 | 1.57 | 0.89 | 6.24
45 | SUIT-2 (pancreas, adherent) | 0.818 | 1200 | 0.922 | > 2.56 | 0.871 | > 10.2
46 | SUP-B15 (lymphoblastic leukaemia, suspension) | 0.566 | 188 | 0.976 | > 2.56 | 0.408 | 0.362
47 | SUP-HD1 (Hodgkin lymphoma, suspension) | 0.739 | 579 | 0.961 | > 2.56 | 0.77 | 3.7
48 | SUP-M2 (anaplastic large cell lymphoma, suspension) | 0.698 | 385 | 0.994 | > 2.56 | 0.592 | 1.07
49 | SUP-T1 (T-cell lymphoblastic leukaemia, suspension) | 0.913 | > 2000 | 0.938 | > 2.56 | 0.636 | 1.46
50 | SW13 (adrenal gland, adherent) | 0.976 | > 2000 | 0.984 | > 2.56 | 0.933 | > 10.2
51 | SW48 (large intestine, adherent) | 0.806 | 1010 | 0.968 | > 2.56 | 0.964 | > 10.2
52 | SW620 (large intestine, adherent) | 0.95 | > 2000 | 0.99 | > 2.56 | 0.799 | 4.26

Row | Cell Line | AUC (AICAR) | IC50 (AICAR) [µM] | AUC (AKT inhibitor VIII; [1]) | IC50 (AKT inhibitor VIII; [1]) [µM] | AUC (AKT inhibitor VIII; [2]) | IC50 (AKT inhibitor VIII; [2]) [µM]
53 | SW626 (ovary, adherent) | 0.977 | > 2000 | 0.921 | > 2.56 | 0.836 | 8.62
54 | SW756 (cervix, adherent) | 0.956 | > 2000 | 0.982 | > 2.56 | 0.985 | > 10.2
55 | SW780 (bladder, adherent) | 0.882 | > 2000 | 0.871 | > 2.56 | 0.986 | > 10.2
56 | SW948 (large intestine, adherent) | 0.966 | > 2000 | 0.973 | > 2.56 | 0.981 | > 10.2
57 | SW962 (urogenital system, adherent) | 0.933 | > 2000 | 0.918 | > 2.56 | 0.886 | > 10.2
58 | SW982 (soft tissue, adherent) | 0.843 | 1490 | 0.985 | > 2.56 | 0.925 | > 10.2
59 | SW1271 (small cell lung carcinoma, adherent) | 0.984 | > 2000 | 0.946 | > 2.56 | 0.925 | > 10.2
60 | SW1417 (large intestine, adherent) | 0.946 | > 2000 | 0.986 | > 2.56 | 0.884 | > 10.2
61 | SW1573 (lung adenocarcinoma, adherent) | 0.948 | > 2000 | 0.973 | > 2.56 | 0.963 | > 10.2
62 | SW1710 (bladder, adherent) | 0.969 | > 2000 | 0.832 | 1.71 | 0.863 | 9.28
63 | SW1783 (glioma, adherent) | 0.935 | > 2000 | 0.959 | > 2.56 | 0.958 | > 10.2
64 | SW1990 (pancreas, adherent) | 0.828 | 1530 | 0.954 | > 2.56 | 0.983 | > 10.2
65 | Saos-2 (osteosarcoma, adherent) | 0.953 | > 2000 | 0.942 | > 2.56 | 0.981 | > 10.2
66 | SiHa (cervix, adherent) | 0.975 | > 2000 | 0.969 | > 2.56 | 0.985 | > 10.2
67 | T47D (breast, adherent) | 0.691 | 576 | 0.695 | 0.765 | 0.509 | 0.684
68 | T84 (large intestine, adherent) | 0.962 | > 2000 | 0.979 | > 2.56 | 0.873 | 10.1
69 | T98G (glioma, adherent) | 0.926 | > 2000 | 0.97 | > 2.56 | 0.972 | > 10.2
70 | T-T (oesophagus, adherent) | 0.697 | 445 | 0.886 | > 2.56 | 0.951 | > 10.2
71 | TE-1 (oesophagus, adherent) | 0.388 | 56.6 | 0.957 | > 2.56 | 0.903 | > 10.2
72 | TE-4 (oesophagus, adherent) | 0.9 | > 2000 |  |  | 0.904 | > 10.2
73 | TE-5 (oesophagus, adherent) | 0.937 | > 2000 | 0.883 | > 2.56 | 0.893 | > 10.2
74 | TE-6 (oesophagus, adherent) | 0.941 | > 2000 | 0.976 | > 2.56 | 0.849 | 9.73
75 | TE-8 (oesophagus, adherent) | 0.79 | 961 | 0.915 | > 2.56 | 0.913 | > 10.2
76 | TE-9 (oesophagus, adherent) | 0.91 | > 2000 | 0.97 | > 2.56 | 0.966 | > 10.2
77 | TE-11 (oesophagus, adherent) | 0.416 | 75.2 | 0.969 | > 2.56 | 0.961 | > 10.2
78 | TE-12 (oesophagus, suspension) | 0.655 | 372 | 0.966 | > 2.56 | 0.737 | 3.59
